# Measurements from PMC4336329 (PLoS ONE, 2015).
# Among all 310,000 compounds or so, about 2,200 (0.71%) showed an effect of 50% or more. Effects have a minus sign here. The list shows a part of the results.
# Target: human ether-à-go-go-related gene (hERG) potassium channel (human, UniProt Q12809)
# Experiment: primary screen, population patch clamp on CHO cells stably expressing hERG
# Sequence of human ether-à-go-go-related gene (hERG) potassium channel (Q12809 whole entry, looked up): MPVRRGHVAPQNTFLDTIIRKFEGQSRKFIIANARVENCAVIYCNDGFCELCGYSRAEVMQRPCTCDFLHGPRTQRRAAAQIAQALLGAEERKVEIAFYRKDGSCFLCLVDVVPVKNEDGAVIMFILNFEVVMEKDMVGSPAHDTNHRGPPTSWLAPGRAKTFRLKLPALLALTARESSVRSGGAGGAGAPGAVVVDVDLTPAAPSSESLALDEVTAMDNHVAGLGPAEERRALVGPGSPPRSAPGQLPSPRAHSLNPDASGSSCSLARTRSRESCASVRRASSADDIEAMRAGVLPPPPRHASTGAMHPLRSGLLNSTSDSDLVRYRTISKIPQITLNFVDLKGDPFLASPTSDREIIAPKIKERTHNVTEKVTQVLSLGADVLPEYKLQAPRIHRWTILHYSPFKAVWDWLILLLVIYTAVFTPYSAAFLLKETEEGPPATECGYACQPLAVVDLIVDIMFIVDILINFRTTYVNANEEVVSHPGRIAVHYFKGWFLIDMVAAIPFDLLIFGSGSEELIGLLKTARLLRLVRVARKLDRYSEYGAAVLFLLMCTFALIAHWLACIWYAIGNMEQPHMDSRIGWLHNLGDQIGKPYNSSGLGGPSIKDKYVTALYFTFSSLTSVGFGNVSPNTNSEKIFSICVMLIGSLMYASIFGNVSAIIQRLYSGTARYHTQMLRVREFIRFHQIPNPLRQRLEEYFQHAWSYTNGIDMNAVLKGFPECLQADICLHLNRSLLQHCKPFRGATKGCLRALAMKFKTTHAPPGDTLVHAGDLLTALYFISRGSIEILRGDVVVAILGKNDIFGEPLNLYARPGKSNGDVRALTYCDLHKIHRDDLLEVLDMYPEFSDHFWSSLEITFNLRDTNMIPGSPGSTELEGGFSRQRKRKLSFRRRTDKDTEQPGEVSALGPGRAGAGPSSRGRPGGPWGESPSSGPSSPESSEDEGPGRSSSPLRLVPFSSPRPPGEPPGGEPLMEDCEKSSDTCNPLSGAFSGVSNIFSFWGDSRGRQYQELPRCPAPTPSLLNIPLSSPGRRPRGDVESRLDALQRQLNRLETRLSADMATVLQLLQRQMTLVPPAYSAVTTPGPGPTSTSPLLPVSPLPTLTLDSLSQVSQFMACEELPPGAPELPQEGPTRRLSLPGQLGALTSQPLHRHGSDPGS
row,Structure (SMILES),"hERG current change (%, negative = inhibition) at 1uM [%]"
1,Cc1ccc(/C=N/Nc2nc(Cl)c(Cl)cc2Cl)s1,14.6
2,COc1cc(/C=N/NC(=O)NC2CCCCC2)cc(OC)c1O,5.53
3,Cc1nc2ccccc2c2c(N)c3ccccc3n12,14.4
4,Cc1c([N+](=O)[O-])c2ccc(O)cc2n1-c1ccccc1,8.82
5,NS(=O)(=O)c1ccc(NC(=O)COC(=O)c2cc(Cl)ccc2[N+](=O)[O-])cc1,6.38
6,COC(=O)c1sc2nc(N3CCCCC3)c3c(c2c1N)CCCC3,21.3
7,O=C1c2cccc3cc([N+](=O)[O-])cc(c23)C(=O)N1c1ccccc1O,16.2
8,Cc1nnc(SCC(=O)Nc2cc(S(C)(=O)=O)ccc2Cl)n1Cc1ccccc1,11.2
9,CCc1nnc(NC(=O)CSc2nc3c(cc2C#N)CCCC3)s1,15.4
10,CCN(CCC#N)c1ccc(/C=N/Nc2nc(C)cc(=O)[nH]2)c(C)c1,-5.5
11,O=[N+]([O-])c1ccccc1SNc1ccccn1,13.6
12,COc1ccc(NC(=O)COC(=O)C2CC2)c(OC)c1,-18.4
13,CC(NS(=O)(=O)c1ccc(Cl)c(Cl)c1)C(=O)OCC(=O)N1CCCCCC1 (centres unmarked),-9.64
14,O=C(Nc1ccccc1)c1cc2ccc3ccccc3c2s1,15
15,CC12CCC(C/C1=N/OC(=O)c1cccc([N+](=O)[O-])c1)C2(C)C (centres unmarked),14.6
16,O=C(Nc1cccnc1)c1ccc(S(=O)(=O)c2ccccc2)cc1,12.5
17,CCN(CC)C(=O)c1cc(Cl)ccc1NC(=O)c1ccco1,6.5
18,O=c1cc(CN2CCc3ccccc3C2)nc2sccn12,11.6
19,CCc1ccc(OCC(=O)N2CC(C(N)=O)Oc3ccccc32)cc1 (centres unmarked),9.25
20,Cc1ccc(NC(=O)CCN2C(=O)C3C4CCC(C4)C3C2=O)cc1[N+](=O)[O-] (centres unmarked),7.27
21,Nc1ccc(C(=O)[O-])cc1.[K+],19.1
22,Cc1ccccc1NC(=O)c1ccc2nccnc2c1,4.5
23,Cc1cccn2c(=O)c3cc(C(=O)NCC4CCCO4)c(=N)n(C4CCCC4)c3nc12 (centres unmarked),-80.3

row,Structure (SMILES),"hERG current change (%, negative = inhibition) at 1uM [%]"
1,OCCSc1ncnc2c1oc1ccccc12,6.8
2,Cc1cccc(NC(=S)NNC(=O)CCn2nc(C)c([N+](=O)[O-])c2C)c1,7.94
3,Cc1cc(NC(=O)C2CC(=O)N(c3ccccc3Cl)C2)no1 (centres unmarked),8.84
4,COCCNc1nc2c(c(=O)n(Cc3cccc(Br)c3)c(=O)n2C)n1C,9.1
5,CCc1ccc2nc3nc(C)cc(C)c3c(N)c2c1,3.04
6,COc1cccc(OC)c1C(=O)Nc1ccccc1N1CCCC1,-4.17
7,CCN(CC(=O)Nc1ccc(C(=O)OC)cc1)C1CCCCC1,16.3
8,CCOC(=O)c1cc2ccccc2n1CC(=O)c1ccccc1,10.1
9,Cc1cc(/C=C2\C(=O)NC(=O)N(Cc3ccccc3)C2=O)c(C)n1-c1ccc(Cl)c(C(=O)O)c1,5.21
10,O=C1Cc2ccccc2C(=O)N1OCc1ccc(Cl)cc1,9.57
11,CC1CCCC(C)N1C(=O)CN1C(=O)C(C)(C)Oc2ccc(C(=O)NC3CCCCC3)cc21 (centres unmarked),8.44
12,O=C(CSc1nc2[nH]c(=O)cc(O)c2s1)Nc1nccs1,11.7
13,CCCN(CC(=O)Nc1ccccc1OC)C(=O)c1ccc2ncsc2c1,-0.49
14,Cc1ccc(S(=O)(=O)N2CCN(S(=O)(=O)N3CCC(C)CC3)CC2)c(C)c1,9.41
15,CCOC(=O)C1=C(CNCCc2ccc(Cl)cc2)NC(=O)NC1c1cccc([N+](=O)[O-])c1 (centres unmarked),15
16,Cn1c(SCCS(=O)(=O)c2ccc(Cl)cc2)nnc1-c1ccccc1,12.8
17,CNC(=O)Nc1ccc(S(N)(=O)=O)cc1,12.3
18,COCc1c(C(=O)N/N=C/c2cccc3ccccc23)nnn1-c1nonc1N,8.15
19,CCC1(C)Cc2nc3[nH]c(=S)n(-c4ccccc4C)c(=O)c3cc2CO1 (centres unmarked),13.6
20,CCC1CCCCN1C(=S)Nc1ccc(S(=O)(=O)Nc2ncccn2)cc1 (centres unmarked),7.62
21,Cc1ccc(S(=O)(=O)N(C)c2ccc(C(=O)Nc3cccc(C)n3)cc2)cc1,7.73
22,COCCN(C(=O)COC(=O)c1c(-c2ccccc2)noc1C)c1c(N)n(Cc2ccccc2)c(=O)[nH]c1=O,-49.1
23,O=C(Cn1cnc2ccccc21)N/N=C/c1ccccc1[N+](=O)[O-],12.8

row,Structure (SMILES),"hERG current change (%, negative = inhibition) at 1uM [%]"
1,CCN(CC(=O)Nc1c(F)cccc1F)C(=O)c1ccc(=O)n(Cc2ccccc2)n1,7.76
2,O=C(CN1CCN(C(=O)N2CCOCC2)CC1)Nc1cc(Cl)ccc1Cl,-24.8
3,Cc1noc(/C=C/N(C)C)c1S(=O)(=O)N1CCCC(C(=O)N2CCc3ccccc32)C1 (centres unmarked),11.6
4,COCc1cc(/C=N\NC(=O)Cc2ccc(Cl)cc2)ccc1OC,-5.99
5,COc1ccc(C(CCNCc2ccc(N(C)C)cc2)c2ccccc2)cc1 (centres unmarked),-56.4
6,O=S(=O)(c1ccc(SCCOc2ccc(Br)cc2)nc1)N1CCCC1,9.03
7,O=C(OCC(=O)c1ccc[nH]1)c1ccc(S(=O)(=O)N2CCCCCC2)cc1,6.74
8,Cc1cc2n(n1)C(c1sccc1C)Nc1c(C)cccc1-2 (centres unmarked),1.95
9,Cc1ccc(O)c(C=Nc2ccc3[nH]ncc3c2)c1,1.13
10,CC(=N/O)/C(=N\O)c1ccc(C)o1,8.08
11,Cc1cc(C(=O)N2CCN(c3ccccc3)CC2)no1,-1.56
12,CCOC(=O)N1CCN(C(=O)CCn2c(=S)[nH]c3ccccc3c2=O)CC1,18.6
13,CCCc1nc(-c2ccccc2O)n(-c2ccccc2)n1,12.2
14,CCOC(=O)C1CCN(CC(=O)NC(=O)NC2CCCCC2)CC1,6.76
15,O=C(NCCN1CCN(Cc2ccccc2)CC1)c1ccc(CS(=O)(=O)c2ccc(Br)cc2)o1,-50.5
16,O=C(C1CCC(=O)N1Cc1ccccc1Cl)N1CCN(c2cccc(Cl)c2)CC1 (centres unmarked),9.42
17,Cc1cc(C)n(-c2nc(-c3ccccc3)cs2)n1,1.91
18,C/C(=N/NC(=O)c1cccs1)c1ccc(NC(=O)COc2ccc(Cl)cc2)cc1,17.7
19,Cc1cc2oc(=O)cc(Cn3ncc(Cl)c(Cl)c3=O)c2cc1Cl,6.36
20,CN(C)S(=O)(=O)c1cc(NC(=O)CN2CCCc3ccccc32)ccc1Cl,9.05
21,CN(C)S(=O)(=O)c1ccc(N2CCCC2)c(C(=O)Nc2ccccc2F)c1,9.56
22,COc1ccc(S(=O)(=O)N2CCCCC2)cc1-n1cnnn1,14.3
23,NC(=O)C1CCN(C(=O)c2cnn(-c3ccccc3)c2NC(=O)c2cccc(F)c2)CC1,8.66

row,Structure (SMILES),"hERG current change (%, negative = inhibition) at 1uM [%]"
1,CCCCOc1ccc(S(N)(=O)=O)cc1,4.44
2,CCOc1ccccc1NC(=O)Nc1cccc(NC(C)=O)c1,9.48
3,CCS(=O)(=O)c1ccc2oc(Nc3ccccc3Br)nc2c1,-3.68
4,Cc1[nH]n(-c2ccccc2)c(=O)c1C=Nc1cnc2ccccc2c1,8.17
5,O=C(c1ccccc1F)N1CCc2ccccc21,8.75
6,Cc1ccc(CNC(=O)CCCn2c(=O)c3ccccc3n(CC(=O)NCc3ccco3)c2=O)cc1,2.36
7,COc1cccc(COCC(O)Cn2cnc3cc(C)c(C)cc32)c1.O=C(O)C(=O)O (centres unmarked),11.9
8,COc1ccc(OC)c(S(=O)(=O)NCC(=O)O)c1,13.4
9,COc1ccc2c(c1)Cc1sc(NC(=O)c3ccco3)nc1-2,11.6
10,Cc1cccc(-c2noc(CCCC(=O)Nc3ccc(C(N)=O)cc3)n2)c1,10.6
11,Cc1c(Br)c([N+](=O)[O-])nn1CC(=O)Nc1ccc(C(C)C)cc1,14.6
12,c1ccc(CSc2ncnc3ccccc23)cc1,7.32
13,C=CCNC(=O)/C(=C\C=C\c1ccccc1)NC(=O)c1ccccc1Cl,-1.9
14,COc1ccc(OCC(=O)O/N=C(\N)c2ccc(OC)c(OC)c2)cc1,11.7
15,CC1(C(=O)O)COC(c2ccc([N+](=O)[O-])cc2)OC1 (centres unmarked),2.26
16,CCOC(=O)c1[nH]c(C)c(C(=O)NCCCN2CCOCC2)c1C,-6.95
17,O=C(NCCn1c(-c2ccncc2)nc2ccccc21)[C@H]1CCCN1c1nc(CN2CCCCC2)cs1,12.3
18,CC(=O)N1CCc2cc(S(=O)(=O)NCCC(=O)Nc3ccc4c(c3)OCCO4)ccc21,10.4
19,Cc1ccc(S(=O)(=O)NCCc2cn3nc(C)c(C)nc3n2)cc1C,27.3
20,O=C(NN1CCOCC1)c1cccc(Br)c1,18.8
